# Viability of KB3-1 and Nalm-6 cells after 48 h of drug alone (CellTiter-Glo), 11 doses over about 4.5 log units. % of DMSO wells, lower = more cell loss; AC50 from the fitted curve, lower = more potent. No active / inactive call. Nalm-6 was screened in two runs. AC50 is listed only for well-fitted inhibitory curves. KB3-1 is a HeLa-derived carcinoma line, Nalm-6 a B-cell precursor leukaemia line.
# Key:
# Nalm-6 [1] = test: log AC50 of viability decrease (48 h) (log10 M); higher = less potent
# Procedure: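 Eleven-dose screen of the NCATS MIPE 3 library on cells without co-treatment; CellTiter-Glo after 48 h. AC50 from the curve fit; only inhibitory curves of the better fit classes are listed.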
# Nalm-6 [2] = test: viability (% of DMSO control); higher = more viable cells
# Procedure: (§1)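 Eleven-dose screen of the NCATS MIPE 3 library on cells without co-treatment; CellTiter-Glo after 48 h, as % of DMSO wells.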
# KB3-1 = test: as above
# Procedure: as §1
Structure (SMILES),log AC50 of viability decrease (Nalm-6 [1]; run: 1),log AC50 of viability decrease (Nalm-6 [1]; run: 2),"viability (Nalm-6 [2]; run: 1, 0.00078 µM)","viability (Nalm-6 [2]; run: 1, 0.00234 µM)","viability (Nalm-6 [2]; run: 1, 0.00702 µM)","viability (Nalm-6 [2]; run: 1, 0.0211 µM)","viability (Nalm-6 [2]; run: 1, 0.0632 µM)","viability (Nalm-6 [2]; run: 1, 0.19 µM)","viability (Nalm-6 [2]; run: 1, 0.569 µM)","viability (Nalm-6 [2]; run: 1, 1.71 µM)","viability (Nalm-6 [2]; run: 1, 5.12 µM)","viability (Nalm-6 [2]; run: 1, 15.4 µM)","viability (Nalm-6 [2]; run: 1, 46.1 µM)","viability (Nalm-6 [2]; run: 2, 0.00078 µM)","viability (Nalm-6 [2]; run: 2, 0.00234 µM)","viability (Nalm-6 [2]; run: 2, 0.00702 µM)","viability (Nalm-6 [2]; run: 2, 0.0211 µM)","viability (Nalm-6 [2]; run: 2, 0.0632 µM)","viability (Nalm-6 [2]; run: 2, 0.19 µM)","viability (Nalm-6 [2]; run: 2, 0.569 µM)","viability (Nalm-6 [2]; run: 2, 1.71 µM)","viability (Nalm-6 [2]; run: 2, 5.12 µM)","viability (Nalm-6 [2]; run: 2, 15.4 µM)","viability (Nalm-6 [2]; run: 2, 46.1 µM)",viability (KB3-1; 0.00078 µM),viability (KB3-1; 0.00234 µM),viability (KB3-1; 0.00702 µM),viability (KB3-1; 0.0211 µM),viability (KB3-1; 0.0632 µM),viability (KB3-1; 0.19 µM),viability (KB3-1; 0.569 µM),viability (KB3-1; 1.71 µM),viability (KB3-1; 5.12 µM),viability (KB3-1; 15.4 µM),viability (KB3-1; 46.1 µM)
Cc1cc2c(C(C)C)c(O)c(O)c(C=O)c2c(O)c1-c1c(C)cc2c(C(C)C)c(O)c(O)c(C=O)c2c1O [(-)-Gossypol],-5.03,-5.08,116%,117%,119%,112%,122%,110%,123%,113%,84.6%,34.7%,4.38%,109%,110%,105%,111%,110%,106%,111%,100%,82.4%,21.6%,4.36%,98.7%,103%,101%,100%,100%,98.7%,98%,98%,98.9%,93.9%,7.87%
Cc1cccc(-c2nn(C(=S)Nc3ccccc3)cc2-c2ccnc3ccccc23)n1 [A 83-01],-4.78,-4.73,96%,106%,106%,107%,109%,100%,109%,104%,90.2%,80.5%,49.5%,98.6%,100%,98.2%,103%,102%,103%,94.7%,92.8%,87%,81.4%,48.9%,104%,109%,106%,110%,109%,110%,110%,108%,108%,107%,82.4%
CC(=O)NC(C)c1ccc(Oc2ccc(OC(C)C)cc2)cc1 (configuration not stated) [ACC1 BMS],,-4.78,63.5%,90.7%,97.9%,100%,106%,108%,106%,106%,74.6%,61.2%,36.7%,97.3%,92.2%,94.6%,92.2%,104%,108%,103%,101%,89.4%,73.6%,42.7%,97%,97.4%,105%,95.3%,99.9%,104%,106%,106%,104%,83.9%,73.4%
CCOC(CN1C(=O)[C@](CC(=O)Nc2ccc(C)cc2)(NC(=O)Nc2ccc(C)cc2)c2ccccc21)OCC [AG-041R],-4.63,-4.63,117%,110%,112%,122%,124%,120%,109%,118%,117%,99.5%,2.12%,107%,107%,107%,110%,106%,104%,108%,111%,100%,90.6%,2.13%,105%,101%,102%,104%,105%,108%,107%,109%,110%,102%,10.3%
CCN(CCO)CCCOc1ccc2c(Nc3cc(CC(=O)Nc4cccc(F)c4)[nH]n3)ncnc2c1 [AZD-1152-HQPA],-4.98,-4.73,94.6%,99%,66.7%,61.7%,63.1%,64.7%,61.3%,60.2%,44.5%,45.8%,8.82%,92.1%,105%,84.4%,84.1%,80.4%,83%,80.2%,84.4%,55%,52.4%,2.4%,96.2%,95.3%,92%,82.8%,84.7%,84.1%,81%,82%,83.4%,83.3%,59.2%
CN(C)C(=O)c1ccc(S(=O)(=O)c2ccc(NC(=O)[C@@](C)(O)C(F)(F)F)c(Cl)c2)cc1 [AZD-7545],,-5.78,67.6%,98.7%,103%,113%,100%,103%,105%,87.5%,76.5%,76%,78.1%,94.8%,101%,106%,102%,108%,108%,98.8%,90%,77.5%,72.7%,78.9%,98.6%,104%,99.9%,103%,104%,107%,97%,90%,81.4%,94.8%,77.6%
C[C@]\12CC[C@H](O)CC1=C/C[C@@H]3[C@@H]2CC[C@@]\4(C)[C@H]3C\C=C4C5=CN=CC=C5 [Abiraterone],-4.63,-5.73,105%,118%,113%,123%,120%,124%,116%,118%,109%,95.3%,4.95%,107%,103%,104%,106%,99.1%,107%,83.3%,56.6%,14.9%,5.94%,0.608%,102%,105%,107%,107%,114%,111%,104%,103%,101%,98.5%,84.9%
CC1(C)SCCN(S(=O)(=O)c2ccc(OCC#CCO)cc2)[C@H]1C(=O)NO [Apratastat],-6.63,,110%,112%,105%,107%,96.6%,84.9%,80.1%,70.2%,63.8%,69.9%,55.3%,108%,103%,99.6%,103%,105%,103%,107%,105%,110%,103%,93.6%,98.4%,101%,96.1%,102%,97.7%,94.1%,99.9%,93.6%,92.9%,95.5%,83.1%

# Reference: the supplement of paper PMC4996465
